Results from the RNAGym collection of RNA variant scans (doi:10.1073/pnas.2313332121).
Variants at the floor of the assay are shown more often than the library holds them.

B1: TPR 5TU (parent)
chain: GGAUCUUCUCGAUCUAACAAAAAAGACAAAUCUGCCACAAAGCUUGAGAGCAUCUUCGGAUGCAGAGGCGGCAGCCUUCGGUGGCGCGAUAGCGCCAACGUUCUCAACUAUGACACGCAAAACGCGUGCUCCGUUGAAUGGAGUUUAUCAUG

Variants of: B1
Assay: polymerase ribozyme fitness, log enrichment relative to wild type (log ratio); higher = more active; in vitro selection for triplet polymerase activity
Procedure, shortened: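 In triplicate, a single round of in vitro selection was run on each mutant library, PCR-built and transcribed, covering one subunit of a heterodimeric triplet polymerase ribozyme. Frozen incubation at −7 °C followed annealing with a biotinylated primer, partner subunit and triplets, and extended constructs were then gel-excised, streptavidin-captured and taken through RT-PCR. Fitness is the logarithm of genotype enrichment over wild-type enrichment, from inverse-variance-weighted replicate averages of Illumina-sequenced inputs and outputs. […] only genotypes with ≥10 input reads and ≥1 read per output were kept.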

| Variant | polymerase ribozyme fitness (log ratio) |
| --- | --- |
| A16G G34A U90G | ≤ -4.2 |
| A16G U53A G58A C93U A97C C125G U130A | ≤ -4.2 |
| A16U U31A C38G A41C G62C A120U A142G A147U | ≤ -4.2 |
| A16G A52C U53A G92C U109G A137C U139G | ≤ -4.2 |
| A16G A21C G48C C54A G58U C93U A122G | -3.83 |
| A16U C85A C99U A138G | ≤ -4.2 |
| A16U A17C A30U U33C C35A G71A U146G | ≤ -4.2 |
| A16G C51U C95G C96A G141U A147C | ≤ -4.2 |
| A17C A23U A52U U56C | ≤ -4.2 |
| A16G C43U U45A C75U C93G U102A | ≤ -4.2 |
| A16U C93U | -2.81 |
| A16C G42U G58C G84U G100A U102G A137U U144C | ≤ -4.2 |
| A16U A24G A49G A138C U148G | ≤ -4.2 |
| A16G A19C G88C | ≤ -4.2 |
| A17C A28G G68U U78C A89U C95A A107G A119G U144C U148G | ≤ -4.2 |
| A16G A40C C63A A73U G88U A98U C116A U148C | ≤ -4.2 |
| A16G A17G C38G G58A A89G C93G A106G G112C A147G | ≤ -4.2 |
| A16U U109G A110C A120G C125U G143C U151G | ≤ -4.2 |
| A17C A23C C32U G84U | ≤ -4.2 |
| A16G C27U | -2 |
| A16C U44A G70U G81A C85A A89G C108U A115U A119G U145C U151G | ≤ -4.2 |

| Variant | polymerase ribozyme fitness (log ratio) |
| --- | --- |
| A16C G58C G71A G136A | ≤ -4.2 |
| A16G A28G G59A G80A G83C C87U | ≤ -4.2 |
| A16U A29U U61G C93G A122G | ≤ -4.2 |
| A16U A24U A30C G65A C76U C96G | ≤ -4.2 |
| A16U C125A | -2.06 |
| A16C U31G A49U U61A C93G A142G G143C U145A U151G | ≤ -4.2 |
| A16U A19C A30U G86U C95G | ≤ -4.2 |
| A16G A30C A52C G84U C85G G100A U101A A122U G126U | ≤ -4.2 |
| A16U A17U A23U G46C G92A A106G C125G U135A | ≤ -4.2 |
| A16G C27G A47U G62U G83U C129A A150G | ≤ -4.2 |
| A16U A24C G48U U109A A115G | ≤ -4.2 |
| A16G U44A U77A C85G A122U U134C U146G | ≤ -4.2 |
| A16U C75G G84U A122C | ≤ -4.2 |
| A16C U90G | ≤ -4.2 |
| A16G A41C A49C G65A | ≤ -4.2 |
| A16U A23G C57U G84A C114U G136C U146G | ≤ -4.2 |
| A16U C129A | -3.81 |
| A17C A19U | 0.475 |
| A17C A40G | -1.63 |
| A16U U61A C95U | -3.06 |
| A16C G50C G58A G88C A137U | ≤ -4.2 |

| Variant | polymerase ribozyme fitness (log ratio) |
| --- | --- |
| A16G C27A U82G C87A A115G A122C | ≤ -4.2 |
| A17C A24C U146G | ≤ -4.2 |
| A16C U44A C69G C75G A91U C114G G117C | ≤ -4.2 |
| A16G C18G C27U A66U G83U C108U C129A A138C | ≤ -4.2 |
| A16U C27A A40C A113C C149G | ≤ -4.2 |
| A16U C35U G74C C93U A150U G152A | ≤ -4.2 |
| A16U A29C C85U U146G | ≤ -4.2 |
| A16G G94A U104A | -0.709 |
| A16U G42A C63G | ≤ -4.2 |
| A16U G34U G71A G94A U102G U151A | ≤ -4.2 |
| A17C A21G C27G A52C G88C | ≤ -4.2 |
| A16U A19U A39U U61A A113G G128A G141C | ≤ -4.2 |
| A16U A28U C54U G117C | ≤ -4.2 |
| A16U A19U A30C C85U C129G | ≤ -4.2 |
| A16U A20U G25C C93U A98G A121C G133C | ≤ -4.2 |
| A16U G50U A66U G92A | ≤ -4.2 |
| A17C A24U C114A | -3.86 |
| A16C U31G A39C G42C | ≤ -4.2 |
| A16U A137U G140C A142G | ≤ -4.2 |
| A16U A20G C54G C93G U104G A106U A137U A142C | ≤ -4.2 |
| A16G G46U U55A C85A C105A | -4.14 |

| Variant | polymerase ribozyme fitness (log ratio) |
| --- | --- |
| A16U A19C U61G G80C C87U A98G G133C G152U | ≤ -4.2 |
| A16G A37C U55G U56A G59A G83A C87U G126A | ≤ -4.2 |
| A16U A24U U33A C35U C87G | -4.15 |
| A16G A17C A21U A29G U55A C57G A91C C103U U145A | ≤ -4.2 |
| A16U A22U G46A C85G C118G | ≤ -4.2 |
| A17C A28G G42U C57G A73G U78A G94C G126A | ≤ -4.2 |
| A16U G83A A89G U109G U130G C132G | ≤ -4.2 |
| A16G C18A C87G C149U | ≤ -4.2 |
| A16U C38U C108U | ≤ -4.2 |
| A16U A28G G34A C79G G81C C99A A147G | ≤ -4.2 |
| A16C G71A G84A U109C G141A | ≤ -4.2 |
| A16U A17G G74C C95U G143C U151G | ≤ -4.2 |
| A16U A64U A66C C93G | ≤ -4.2 |
| A16U A30G G83A U102G A107U | ≤ -4.2 |
| A17C A20C C36G A47U C79A G94U C99U U127A U144C C149A | ≤ -4.2 |
| A16U C63U G92A | ≤ -4.2 |
| A16U G42C A147U | ≤ -4.2 |
| A16U G74C C93A U101A G143A G152U | ≤ -4.2 |
| A16G A19G A39U A40C A41U U56A A97C A120G G128A A142U | ≤ -4.2 |
| A16U C35G G50A G88U C99G C105G C116U G143C | ≤ -4.2 |
| A16G A52C U53G G84A G92A A121U G152A | ≤ -4.2 |
